Among the data in publication PMC7763487 (2020) are binding values, retold here.

Amino acid sequences for entries named in this document (tags omitted). A change or cut given only in a name is not applied to a line headed by its entry. Chains listed by the source or under a name are the forms on record and can include a tag or linker. Residues count along the entry.
UniProt Q3URK3: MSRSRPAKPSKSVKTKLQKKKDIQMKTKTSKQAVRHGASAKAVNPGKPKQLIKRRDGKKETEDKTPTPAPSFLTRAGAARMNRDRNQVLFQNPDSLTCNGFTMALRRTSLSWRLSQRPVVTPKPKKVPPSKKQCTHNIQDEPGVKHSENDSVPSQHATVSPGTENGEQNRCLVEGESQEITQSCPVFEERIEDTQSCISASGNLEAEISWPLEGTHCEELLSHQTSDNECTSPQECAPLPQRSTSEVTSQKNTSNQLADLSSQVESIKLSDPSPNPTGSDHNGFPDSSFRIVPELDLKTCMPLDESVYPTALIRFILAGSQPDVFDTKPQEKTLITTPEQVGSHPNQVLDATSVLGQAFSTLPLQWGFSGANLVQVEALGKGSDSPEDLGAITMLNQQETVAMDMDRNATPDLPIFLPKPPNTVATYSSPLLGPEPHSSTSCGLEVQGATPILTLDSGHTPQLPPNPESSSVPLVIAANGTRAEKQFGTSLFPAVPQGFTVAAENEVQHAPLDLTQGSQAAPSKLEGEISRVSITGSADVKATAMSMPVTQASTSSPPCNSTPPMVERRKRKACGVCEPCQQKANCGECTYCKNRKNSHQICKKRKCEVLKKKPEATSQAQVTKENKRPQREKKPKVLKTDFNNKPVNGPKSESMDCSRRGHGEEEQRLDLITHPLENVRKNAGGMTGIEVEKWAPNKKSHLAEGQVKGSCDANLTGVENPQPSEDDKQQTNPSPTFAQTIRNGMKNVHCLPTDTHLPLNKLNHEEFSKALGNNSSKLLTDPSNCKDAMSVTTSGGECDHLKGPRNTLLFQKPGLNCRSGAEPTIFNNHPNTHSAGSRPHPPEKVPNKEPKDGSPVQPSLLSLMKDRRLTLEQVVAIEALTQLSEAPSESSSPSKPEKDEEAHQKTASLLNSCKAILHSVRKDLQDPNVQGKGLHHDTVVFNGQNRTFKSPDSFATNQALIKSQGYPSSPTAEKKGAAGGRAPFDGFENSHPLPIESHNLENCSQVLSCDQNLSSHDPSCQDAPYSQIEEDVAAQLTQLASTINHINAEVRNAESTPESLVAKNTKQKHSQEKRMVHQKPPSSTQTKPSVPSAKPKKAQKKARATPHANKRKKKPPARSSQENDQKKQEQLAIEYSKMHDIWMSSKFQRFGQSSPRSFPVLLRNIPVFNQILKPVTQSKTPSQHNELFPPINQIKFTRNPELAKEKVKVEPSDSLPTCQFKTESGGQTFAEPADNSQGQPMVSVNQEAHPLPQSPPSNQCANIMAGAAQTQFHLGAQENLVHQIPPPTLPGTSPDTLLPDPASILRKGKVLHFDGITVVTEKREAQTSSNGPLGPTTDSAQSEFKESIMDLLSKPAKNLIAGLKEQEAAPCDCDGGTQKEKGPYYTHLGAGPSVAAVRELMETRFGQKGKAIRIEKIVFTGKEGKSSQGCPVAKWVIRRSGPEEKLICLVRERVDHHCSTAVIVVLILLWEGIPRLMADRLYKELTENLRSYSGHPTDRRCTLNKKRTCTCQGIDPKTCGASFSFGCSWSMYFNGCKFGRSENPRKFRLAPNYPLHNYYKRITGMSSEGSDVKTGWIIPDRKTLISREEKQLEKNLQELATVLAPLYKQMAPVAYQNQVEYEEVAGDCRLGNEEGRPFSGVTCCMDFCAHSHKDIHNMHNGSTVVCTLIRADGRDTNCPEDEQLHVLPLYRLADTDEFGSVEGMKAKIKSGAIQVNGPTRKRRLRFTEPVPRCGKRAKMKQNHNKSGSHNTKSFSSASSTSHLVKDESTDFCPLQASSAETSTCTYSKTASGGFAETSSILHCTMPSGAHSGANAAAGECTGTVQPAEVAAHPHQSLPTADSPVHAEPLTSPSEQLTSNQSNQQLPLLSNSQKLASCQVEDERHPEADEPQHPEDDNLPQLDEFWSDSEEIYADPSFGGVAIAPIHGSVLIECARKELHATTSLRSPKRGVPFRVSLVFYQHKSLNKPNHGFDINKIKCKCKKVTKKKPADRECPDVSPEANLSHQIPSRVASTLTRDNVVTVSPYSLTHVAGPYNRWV
(Flag)3-TET1 1–1494 (WT): residues 1-1494 of Q3URK3
(Flag)3-TET1 1–631: residues 1-631 of Q3URK3
(Flag)3-TET1 1–215: residues 1-215 of Q3URK3
(Flag)3-TET1 734–1202: residues 734-1202 of Q3URK3
(Flag)3-TET1 734–1155: residues 734-1155 of Q3URK3
(Flag)3-TET1 full-length triple-mutant (Δ109–120 + Δ1132–1202 + 1522–1547 aromatic→A) (Q3URK3, form named): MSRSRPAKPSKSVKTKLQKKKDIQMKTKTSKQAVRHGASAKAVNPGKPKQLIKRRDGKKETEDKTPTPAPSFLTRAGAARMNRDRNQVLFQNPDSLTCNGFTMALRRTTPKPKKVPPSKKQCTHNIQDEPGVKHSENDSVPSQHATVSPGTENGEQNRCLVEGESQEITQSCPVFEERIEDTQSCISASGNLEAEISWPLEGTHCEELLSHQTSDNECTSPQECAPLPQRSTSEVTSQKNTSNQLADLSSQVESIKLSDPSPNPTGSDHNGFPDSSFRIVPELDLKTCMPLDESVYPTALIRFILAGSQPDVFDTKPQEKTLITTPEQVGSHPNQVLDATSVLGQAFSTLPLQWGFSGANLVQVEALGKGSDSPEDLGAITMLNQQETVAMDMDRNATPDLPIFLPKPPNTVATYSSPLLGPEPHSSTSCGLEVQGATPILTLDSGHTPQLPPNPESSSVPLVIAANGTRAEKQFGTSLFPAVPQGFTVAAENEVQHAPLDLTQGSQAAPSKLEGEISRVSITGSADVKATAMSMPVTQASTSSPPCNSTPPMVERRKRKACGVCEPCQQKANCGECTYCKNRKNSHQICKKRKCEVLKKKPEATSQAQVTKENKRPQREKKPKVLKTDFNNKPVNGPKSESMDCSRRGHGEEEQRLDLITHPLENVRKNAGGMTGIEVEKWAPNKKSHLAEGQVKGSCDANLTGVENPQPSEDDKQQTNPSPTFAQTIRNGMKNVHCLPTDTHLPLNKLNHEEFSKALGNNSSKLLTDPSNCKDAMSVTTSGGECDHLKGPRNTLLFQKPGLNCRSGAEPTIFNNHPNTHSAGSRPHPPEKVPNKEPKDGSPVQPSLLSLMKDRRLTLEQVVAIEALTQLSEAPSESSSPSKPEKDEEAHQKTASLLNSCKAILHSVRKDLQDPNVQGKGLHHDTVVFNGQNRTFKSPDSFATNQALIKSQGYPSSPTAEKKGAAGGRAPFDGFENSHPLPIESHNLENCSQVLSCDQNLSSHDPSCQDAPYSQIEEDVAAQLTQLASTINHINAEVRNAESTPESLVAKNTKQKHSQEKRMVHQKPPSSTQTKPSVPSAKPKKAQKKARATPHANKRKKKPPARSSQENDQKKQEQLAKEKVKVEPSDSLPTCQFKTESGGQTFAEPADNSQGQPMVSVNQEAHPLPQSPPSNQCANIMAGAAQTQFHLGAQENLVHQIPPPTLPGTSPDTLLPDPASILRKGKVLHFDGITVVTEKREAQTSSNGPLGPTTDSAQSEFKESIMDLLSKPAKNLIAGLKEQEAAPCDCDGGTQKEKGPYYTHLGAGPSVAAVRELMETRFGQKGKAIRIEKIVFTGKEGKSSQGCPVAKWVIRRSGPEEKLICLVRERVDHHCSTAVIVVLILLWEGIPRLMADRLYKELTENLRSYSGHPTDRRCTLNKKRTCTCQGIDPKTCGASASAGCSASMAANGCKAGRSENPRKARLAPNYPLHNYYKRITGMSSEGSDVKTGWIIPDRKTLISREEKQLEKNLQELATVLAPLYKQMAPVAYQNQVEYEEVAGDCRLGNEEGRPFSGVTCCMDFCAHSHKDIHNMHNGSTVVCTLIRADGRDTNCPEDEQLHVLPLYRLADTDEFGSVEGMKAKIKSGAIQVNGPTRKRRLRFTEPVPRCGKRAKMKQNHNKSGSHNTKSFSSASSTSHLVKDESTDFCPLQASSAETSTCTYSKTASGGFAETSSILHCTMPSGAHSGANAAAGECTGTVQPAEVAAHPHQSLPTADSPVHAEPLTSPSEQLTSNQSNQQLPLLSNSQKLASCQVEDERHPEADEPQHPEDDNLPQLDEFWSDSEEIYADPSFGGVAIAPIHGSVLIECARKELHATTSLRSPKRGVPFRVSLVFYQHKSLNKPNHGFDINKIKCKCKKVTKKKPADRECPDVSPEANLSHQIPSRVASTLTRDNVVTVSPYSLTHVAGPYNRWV
(Flag)3-TET1 full-length Δ1733-1901 (lacking the low-complexity insert) (Q3URK3, form named): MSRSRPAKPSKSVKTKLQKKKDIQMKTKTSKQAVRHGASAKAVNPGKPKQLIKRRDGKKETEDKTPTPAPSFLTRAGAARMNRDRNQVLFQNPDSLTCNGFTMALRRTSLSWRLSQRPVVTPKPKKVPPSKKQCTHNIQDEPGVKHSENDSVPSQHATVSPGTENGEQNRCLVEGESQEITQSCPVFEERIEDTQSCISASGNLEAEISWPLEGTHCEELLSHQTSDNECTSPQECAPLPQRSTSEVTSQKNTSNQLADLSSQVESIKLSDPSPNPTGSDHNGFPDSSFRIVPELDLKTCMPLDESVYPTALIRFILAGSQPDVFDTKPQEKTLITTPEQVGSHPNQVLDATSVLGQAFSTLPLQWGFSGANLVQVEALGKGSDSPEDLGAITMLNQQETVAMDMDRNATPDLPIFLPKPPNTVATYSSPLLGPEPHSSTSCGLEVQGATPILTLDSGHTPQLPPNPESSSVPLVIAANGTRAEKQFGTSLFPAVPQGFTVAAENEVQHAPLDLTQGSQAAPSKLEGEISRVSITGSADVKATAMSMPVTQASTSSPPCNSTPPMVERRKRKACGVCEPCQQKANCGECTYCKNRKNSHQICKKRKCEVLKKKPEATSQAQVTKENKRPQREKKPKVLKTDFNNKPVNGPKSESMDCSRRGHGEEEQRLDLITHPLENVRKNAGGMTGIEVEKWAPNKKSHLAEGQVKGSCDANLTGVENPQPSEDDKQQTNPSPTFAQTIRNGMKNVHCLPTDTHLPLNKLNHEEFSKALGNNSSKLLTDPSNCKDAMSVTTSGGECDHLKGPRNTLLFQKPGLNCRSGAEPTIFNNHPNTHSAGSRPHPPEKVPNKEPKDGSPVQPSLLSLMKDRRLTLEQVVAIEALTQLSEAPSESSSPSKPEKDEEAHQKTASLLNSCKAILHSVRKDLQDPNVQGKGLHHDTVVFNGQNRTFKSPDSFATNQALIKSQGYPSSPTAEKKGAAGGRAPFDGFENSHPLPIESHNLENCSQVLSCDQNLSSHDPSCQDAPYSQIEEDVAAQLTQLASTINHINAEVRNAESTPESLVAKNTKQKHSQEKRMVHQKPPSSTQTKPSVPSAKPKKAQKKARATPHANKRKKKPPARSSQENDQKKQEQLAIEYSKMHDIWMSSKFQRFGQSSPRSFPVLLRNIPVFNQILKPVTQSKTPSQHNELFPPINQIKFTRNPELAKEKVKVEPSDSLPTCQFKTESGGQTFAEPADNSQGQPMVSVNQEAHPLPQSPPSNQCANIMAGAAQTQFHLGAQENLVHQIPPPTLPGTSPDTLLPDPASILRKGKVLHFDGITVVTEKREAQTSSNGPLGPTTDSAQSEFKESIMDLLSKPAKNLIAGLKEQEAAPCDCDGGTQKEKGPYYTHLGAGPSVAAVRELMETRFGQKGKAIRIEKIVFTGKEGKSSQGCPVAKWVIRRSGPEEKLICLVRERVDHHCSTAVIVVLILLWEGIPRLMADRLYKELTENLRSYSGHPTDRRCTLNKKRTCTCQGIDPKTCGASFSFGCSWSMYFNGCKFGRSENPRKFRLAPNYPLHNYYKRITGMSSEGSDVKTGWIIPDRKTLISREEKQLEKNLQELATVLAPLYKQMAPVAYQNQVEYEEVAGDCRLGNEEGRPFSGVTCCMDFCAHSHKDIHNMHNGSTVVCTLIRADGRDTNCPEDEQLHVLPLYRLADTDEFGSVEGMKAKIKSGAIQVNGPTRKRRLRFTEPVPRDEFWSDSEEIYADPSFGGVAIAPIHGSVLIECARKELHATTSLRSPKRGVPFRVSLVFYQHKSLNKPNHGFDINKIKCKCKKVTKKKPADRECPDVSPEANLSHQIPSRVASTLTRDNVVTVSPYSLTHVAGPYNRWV

No constants are given. Whether binding was seen depends on the method and setting. Binding seen in cells or lysates may run through a third protein. Some binding calls cover weakened binding; strength is not graded here. Tags and fused reporters may be left off the sequences shown.

Common to all, as to assay: co-IP; (Flag)3-TET1 constructs and (HA)3-NANOG constructs expressed together in E14/T ESCs; Benzonase-treated nuclear protein extracts (350 mM KCl); TET1 immunoprecipitated by its Flag tag, immunoblot; for TET1(734–1169) also after phosphatase treatment of the extracts
(In general: A western blot detects proteins with antibodies after separation by electrophoresis.)

The target in test [1] is (Flag)3-TET1 full-length triple-mutant (Δ109–120 + Δ1132–1202 + 1522–1547 aromatic→A) (mouse) (UniProt Q3URK3).
For test [2], the target named is (Flag)3-TET1 full-length Δ1733-1901 (lacking the low-complexity insert) (mouse) (UniProt Q3URK3).
Test [3] addresses (Flag)3-TET1 1–215 (mouse) (UniProt Q3URK3).
In test [4] the target is (Flag)3-TET1 1–1494 (WT) (mouse) (UniProt Q3URK3).
Test [5] deals with (Flag)3-TET1 1–631 (mouse) (UniProt Q3URK3).
Test [6] addresses (Flag)3-TET1 1–1379 Δ1+2 (mouse) (UniProt Q3URK3).
The target in test [7] is (Flag)3-TET1 1–1494 Δ1+2 (mouse) (UniProt Q3URK3).
For test [8], the target named is (Flag)3-TET1 734–1202 (mouse) (UniProt Q3URK3).
For test [9], the target named is (Flag)3-TET1 full-length Δ1 (Δ109–120) (mouse) (UniProt Q3URK3).
In test [10] the target is (Flag)3-TET1 full-length Δ2 (Δ1132–1202) (mouse) (UniProt Q3URK3).
Test [11] addresses (Flag)3-TET1 734–1155 (mouse) (UniProt Q3URK3).

B1: (HA)3-NANOG (protein, UniProt Q80Z64 1-305)
chain: MSVGLPGPHSLPSSEEASNSGNASSMPAVFHPENYSCLQGSATEMLCTEAASPRPSSEDLPLQGSPDSSTSPKQKLSSPEADKGPEEEENKVLARKQKMRTVFSQAQLCALKDRFQKQKYLSLQQMQELSSILNLSYKQVKTWFQNQRMKCKRWQKNQWLKTSNGLIQKGSAPVEYPSIHCSYPQGYLVNASGSLSMWGSQTWTNPTWSSQTWTNPTWNNQTWTNPTWSSQAWTAQSWNGQPWNAAPLHNFGEDFLQPYVQLQQNFSASDLEVNLEATRESHAHFSTPQALELFLNYSVTPPGEI
With B1, the binding result in test [1] is “no binding”; in test [2] it was “binds”; in test [3], “binds”; in test [4] it was “binds weakly”; in test [5], “binds”; in test [6], “no binding”. Also, the binding entry in test [7] was “no binding”; in [8], “binds”; in test [9], “binds”; in [10], “binds”; in test [11], “no binding”.
